Experimental data published in patent US6706740B2, “Fungicidal heterocyclic aromatic amides and their compositions, methods of use and preparation” (Dow AgroSciences LLC, priority 1999, dated 2004).

system: Plasmopara viticola—PLASVI; assay: whole plant or invertebrate; format: in vivo; details: 100 ppm, grape, 24 hour protectant; control of fungal infection vs untreated plants

| Structure (SMILES) | PLASVI in vivo 1 Day Protectant |
| --- | --- |
| COc1ccnc(C(=O)NC(COC(=O)CCc2ccccc2)C(=O)OC(C)COC(=O)C(C)C)c1O (stereo not shown) [Compound 359] | + (25-74% control of fungal infection) |

same assay, conditions: Plasmopara, 24 h, read-out: PLASVI in vivo 1 Day Protectant, 100 ppm, 24 hour protectant, grape; control of fungal infection vs untreated plants

| Structure (SMILES) | pest or weed control at 100 ppm [%] |
| --- | --- |
| COc1ccnc(C(=O)NC(C)c2ccc(C(F)(F)F)cc2)c1O (stereo not shown) [Compound 247] | 25 to 74 |
| COc1ccc(CNC(=O)c2ncccc2O)cc1 [Compound 226] | < 25 |
| COc1ccnc(C(=O)N[C@H]2CC[C@@H](Oc3ccc(C(F)(F)F)cc3)CC2)c1O [Compound 271] | 25 to 74 |
| COc1ccnc(C(=O)NC2CC(C)(C)C(OC)C(C)(C)C2)c1O (stereo not shown) [Compound 265] | 25 to 74 |
| COc1ccnc(C(=O)NC2CC(C)(C)CC(C)(C(=O)c3ccccc3)C2)c1O (stereo not shown) [Compound 260] | 25 to 74 |
| CCCCC1(C)CC(NC(=O)c2nccc(OC)c2O)CC(C)(C)C1 (stereo not shown) [Compound 253] | < 25 |
| C[C@@H](NC(=O)c1ncccc1O)c1cccc2ccccc12 [Compound 231] | 25 to 74 |
| COc1ccnc(C(=O)NC/C=C(\C)CCC=C(C)C)c1O [Compound 242] | < 25 |
| COc1ccnc(C(=O)N[C@@H]2C[C@@H](O[Si](C)(C)C(C)(C)C)O[C@@H](C)[C@@H]2OC)c1O [Compound 326] | < 25 |
| O=C(Nc1cccc(Cl)c1)c1ncccc1O [Compound 212] | 25 to 74 |
| COc1ccnc(C(=O)NC2CC(C)(C)C=CC=C2C)c1O (stereo not shown) [Compound 278] | 25 to 74 |
| COc1ccnc(C(=O)N[C@@H]2CCCC[C@H]2SC)c1O [Compound 273] | 25 to 74 |
| COc1ccnc(C(=O)N[C@H]2CO[C@@H](C(C)Cc3ccc(C(C)(C)C)cc3)OC2)c1O (stereo partly shown) [Compound 317] | 25 to 74 |
| COc1ccnc(C(=O)NC2C3CSC2CN(Cc2ccccc2)C3)c1O (stereo not shown) [Compound 325] | 25 to 74 |
| O=C(Nc1ccc(Oc2ccc(C(F)(F)F)cc2)cc1)c1ncccc1O [Compound 217] | < 25 |

same assay, conditions: Plasmopara, 24 h, read-out: PLASVI in vivo 1 Day Protectant, 100 ppm, grape, 24 hour protectant, % control of fungal infection vs untreated plants

| Structure (SMILES) | pest or weed control at 100 ppm [%] |
| --- | --- |
| COCCC(=O)Oc1c(OC)ccnc1C(=O)Nc1ccc(Sc2cccc(C(F)(F)F)c2)cc1 [Compound 712] | 25 to 74 |
| COc1ccnc(C(=O)Nc2ccc(C(=O)Oc3cccc(C(F)(F)F)c3)cc2)c1OC(C)=O [Compound 715] | 25 to 74 |
| COCCC(=O)Oc1c(OC)ccnc1C(=O)N[C@H]1COC(=O)[C@H](Cc2ccccc2)[C@@H](OC(=O)C(C)C)[C@H](C)OC1=O [Compound 658] | 25 to 74 |
| COCCC(=O)Oc1c(OC)ccnc1C(=O)Nc1ccc(C(=O)Nc2cccc(C(F)(F)F)c2)cc1 [Compound 713] | 25 to 74 |

same assay, conditions: Plasmopara, 24 h, read-out: PLASVI in vivo 1 Day Protectant, 100 ppm, grape, 24 hour protectant; control of fungal infection vs untreated plants

| Structure (SMILES) | pest or weed control at 100 ppm [%] |
| --- | --- |
| COc1ccnc(C(=O)Nc2ccc(C(=O)Nc3cccc(C(F)(F)F)c3)cc2)c1O [Compound 449] | < 25 |
| COc1ccnc(C(=O)NC2COC(=O)[C@H]3CCCC[C@@H]3C(=O)OC2)c1O [Compound 377] | < 25 |
| COc1ccnc(C(=O)Nc2ccc(Oc3ccc(OC(=O)C(C)C)cc3)cc2)c1O [Compound 436] | < 25 |
| CCCCCCCCCCCCCCCCCC(=O)O[C@H]1[C@H](C)OC(=O)[C@@H](NC(=O)c2nccc(OC)c2O)COC(=O)[C@@H]1Cc1ccccc1 [Compound 398] | < 25 |
| COC(=O)C(Cc1ccc(OCc2ccccc2)cc1)NC(=O)c1nccc(OC)c1O (single isomer, unassigned) [Compound 338] | < 25 |
| COC(=O)C(COC(=O)C(C)c1ccccc1)NC(=O)c1nccc(OC)c1O (stereo not shown) [Compound 343] | < 25 |
| COc1ccnc(C(=O)N[C@H]2COC(=O)[C@H](Cc3ccccc3)[C@@H](OC(=O)NC(C)C)[C@H](C)OC2=O)c1O [Compound 399] | < 25 |
| COc1ccnc(C(=O)N[C@H](C(=O)O[C@@H](C)[C@H](OC(=O)C(C)C)[C@@H](Cc2ccccc2)C(=O)OCc2ccccc2)[C@@H](C)OC(C)=O)c1O [Compound 361] | 25 to 74 |
| COc1ccnc(C(=O)Nc2ccc(OC3CC(C)(C)CC(C)(C)C3)cc2)c1O [Compound 458] | < 25 |
| COc1ccnc(C(=O)Nc2cccc(Oc3ccccc3Cl)c2)c1O [Compound 439] | < 25 |
| COc1ccnc(C(=O)N[C@H]2COC(=O)[C@H](Cc3ccccc3)[C@@H](OC(=O)/C=C(\C)CCC=C(C)C)[C@H](C)OC2=O)c1O [Compound 396] | < 25 |
| COc1ccnc(C(=O)Nc2cccc(Oc3cccc(C)c3)c2)c1O [Compound 413] | 25 to 74 |
| COc1ccnc(C(=O)N[C@@H](COCc2ccccc2)C(=O)O[C@@H](C)[C@H](OC(=O)C(C)C)[C@@H](Cc2ccccc2)C(=O)OCc2ccccc2)c1O [Compound 342] | < 25 |
| COc1ccnc(C(=O)Nc2ccc(Oc3ccccc3C)cc2)c1O [Compound 415] | < 25 |

same assay, conditions: Plasmopara, 24 h, read-out: PLASVI in vivo 1 Day Protectant, grape plants, 100 ppm, 24 hour protectant; control of fungal infection vs untreated plants

| Structure (SMILES) | pest or weed control at 100 ppm [%] |
| --- | --- |
| COc1ccc(C(C)NC(=O)c2ccncc2O)cc1 (stereo not shown) [Compound 508] | 25 to 74 |
| CC(C)C(=O)O[C@H]1[C@H](C)OC(=O)[C@@H](NC(=O)c2cnccc2O)COC(=O)[C@@H]1Cc1ccccc1 [Compound 503] | 25 to 74 |
| Cc1nc(O)c(C(=O)N[C@H]2COC(=O)[C@H](Cc3ccccc3)[C@@H](OC(=O)C(C)C)[C@H](C)OC2=O)cc1Cl [Compound 531] | < 25 |
| CC1(C)CC(NC(=O)c2nc3ccccc3nc2O)CC(C)(C)C1 [Compound 563] | < 25 |
| COc1ccnc(C(=O)NC(COC(=O)C(Cc2ccccc2)C(C)OC(=O)C(C)C)C(=O)OC(C)C)c1OC(C)=O (stereo not shown) [Compound 589] | 25 to 74 |
| C=C1COC(=O)[C@@H](NC(=O)c2nccc(OC)c2OC(C)=O)COC(=O)C1 [Compound 595] | 25 to 74 |
| COc1ccnc(C(=O)NC2CC(C)(C)CC(C)(C3CC3)C2)c1OC(C)=O (stereo not shown) [Compound 573] | < 25 |
| CSc1ccnc(C(=O)NC2CC(C)(C)CC(C)(C)C2)c1O [Compound 477] | < 25 |
| Cc1ccnc(C(=O)N[C@H]2COC(=O)[C@H](Cc3ccccc3)[C@@H](OC(=O)C(C)C)[C@H](C)OC2=O)c1OC(=O)C(C)C [Compound 572] | < 25 |
| COC(=O)C(COC(=O)C(C)c1ccccc1)NC(=O)c1nccc(OC)c1OC(C)=O (stereo not shown) [Compound 581] | 25 to 74 |
| COc1ccnc(C(=O)NC2CC(C)(C)C=CC=C2C)c1OC(C)=O (stereo not shown) [Compound 579] | 25 to 74 |
| O=C(NCc1ccccn1)c1nc(Br)ccc1O [Compound 483] | < 25 |
| CC1(C)CC(NC(=O)c2cncnc2O)CC(C)(C)C1 [Compound 539] | < 25 |
| O=C(Oc1cccnc1C(=O)NC1CCC(OC(=O)c2ccccc2)CC1)c1ccccc1 (stereo not shown) [Compound 567] | < 25 |
| CC(NC(=O)c1nc(Br)ccc1O)c1ccc(Cl)cc1 (stereo not shown) [Compound 487] | < 25 |
| COc1nc(O)c(C(=O)N[C@H]2COC(=O)[C@H](Cc3ccccc3)[C@@H](OC(=O)C(C)C)[C@H](C)OC2=O)nc1Cl [Compound 537] | 25 to 74 |
| N#Cc1ccc(Oc2cccc(NC(=O)c3nc(Br)ccc3O)c2)cc1 [Compound 500] | < 25 |
| CC1(C)CC(NC(=O)c2nccnc2O)CC(C)(C)C1 [Compound 533] | 25 to 74 |
